Measured values reported in PubChem BioAssay (NCI).
“And” between values parts separate entries of the source, which are not always exact repeats. Equal values may be shown once.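 1) Cells in 96-well plates. 2) Compound, 48 h, 5 concentrations. 3) Linear interpolation between surrounding doses. 4) Unreached endpoint = highest concentration. GI50: concentration for 50% inhibition of growth. TGI marks complete inhibition of growth.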

The molecules below were run on NCI-H322M lung (assay: DTP human tumour cell line panel, 48 h).

| Structure (SMILES) | TGI | GI50 |
| --- | --- | --- |
| COc1ccc(C(=O)Nc2ccn(CCOC(=O)c3ccc(OC)cc3)c(=O)n2)cc1 | > 100 µM | – |
| O=[N+]([O-])c1ccc(C2NC(=S)NC3c4cc([N+](=O)[O-])ccc4CCCC23)cc1 (stereo unspecified) | > 100 µM | – |
| Clc1ccc2c(c1)CC1C[N+]3=C(CCCCC3)C1=C2 (stereo unspecified) | > 100 µM | – |
| CC1=C(N2CC2)C(=O)C(C)=C(N2CC2)C1=O | 7.73 µM | – |
| CCOC(=O)c1c(Br)c(-c2ccc([N+](=O)[O-])cc2)c(Br)n1C | > 10 µM | – |
| O=C(O)c1ccccc1/C=N\N(CCO)C1=NCCN1 | > 100 µM | – |
| CSc1nc(SC)c2c(C)c(Br)[nH]c2n1 | > 100 µM | – |
| CN(CCc1ccccn1)/[N+]([O-])=N/O (tested in a mixture with another compound) | > 100 µM | – |
| CC(=O)CCn1[nH]c(=O)c(Cl)c(Cl)c1=O | > 100 µM | – |
| O=C(N/N=C/c1cc(Cl)cc(Cl)c1[O-])c1ccccc1O.O=C(N/N=C/c1cc(Cl)cc(Cl)c1[O-])c1ccccc1O.[Cu+2] | 1.74 µM | 0.516 µM |
| CC(=O)Oc1ccc(C)c2c1[C@H]1CC[C@]3(C)[C@@H](OC(C)=O)CC[C@H]3[C@@H]1CC2 | 33.9 µM | – |
| O=c1[nH][nH]c(=O)c2c(O)c(-c3ccccc3)ncc12 | 851 µM | 31.7 µM and 70 µM |
| COc1cc(Cn2c3ccccc3c3cc(C)cc(OC)c32)cc2c1[nH]c1ccccc12 | > 25 µM | – |
| Cc1ccc(/C=C2\CCS(=O)(=O)c3ccccc3C2=O)cc1 | 34 µM | – |
| CC(NNC(=S)N1CCCC1)c1cccnn1 (stereo unspecified) | > 100 µM | – |
| COc1ccc2[nH]cc(C3(c4c[nH]c5ccc(OC)cc45)C(=O)Nc4ccc(Cl)cc43)c2c1 | 45.5 µM | 3.66 µM |
| O=C(O)C1Cc2[nH]c3ccccc3c2C2CCCC12 (stereo unspecified) | > 100 µM | – |
| CC(C)c1ccc(C(c2c(O)c3ccccc3oc2=O)c2c(O)c3ccccc3oc2=O)cc1 | 37.8 µM | – |
| NCCNc1ccc(NCCN)c2c1C(=O)c1c(O)ccc(O)c1C2=O | 1.92 µM and 1.24 µM | 0.221 µM |
| COc1ccc(-c2ccc(-c3ccc(C(=N)N)cc3)s2)cc1Cl | 2.8 µM | 1.48 µM |
| C[n+]1ccc2/c(=C\C#N)c3ccccc3n21 | 66.4 µM | – |
| COc1ccc(OC)c(CCc2ccccc2CC(=O)O)c1 | > 100 µM | – |
| COc1cc2c(cc1OC)-c1c(c3ccc([N+](=O)[O-])cc3c(=O)n1CCCN=[N+]=[N-])C2=O | > 100 µM | > 100 µM |

| Structure (SMILES) | TGI | GI50 |
| --- | --- | --- |
| CCN(CC)CCOc1ccc(NC(=O)C(C(C)C)N2C(=O)/C(=C/c3ccc(Br)cc3)SC2=S)cc1 (stereo unspecified) | 10.7 µM | 2.92 µM |
| Cn1c2ccccc2c2c(=O)n(CCCC(=O)NCCc3cnc[nH]3)c3c(-c4ccccc4)nnn3c21 | 29.4 µM | 11 µM |
| CCCCCCCCCCCCCP(=O)(OC)OC | 29.9 µM | – |
| Cc1cc2oc(=O)cc(OC/C=C3/CCC(=O)O3)c2cc1C | 22.9 µM | 7.91 µM |
| N#Cc1ccc(O)c(C2=NCC(c3ccc(-c4ccccc4)cc3)O2)c1 (stereo unspecified) | 19.2 µM | 1.06 µM |
| CCOC(=O)C1=C(C)C2C3C(=O)OC(=O)C3C1(C)C1C(=O)OC(=O)C21 (stereo unspecified) | > 100 µM | – |
| CCc1nc(N)nc(N)c1-c1ccc(N(C)Cc2ccccc2)c([N+](=O)[O-])c1 | 24.5 µM | – |
| CC1=NC(=O)CNN1C1=NNC2(C(=O)N1)c1ccccc1-c1ccccc12 | > 100 µM | – |
| CC(C)C1CCC(=O)CC1CCCCC1CC(=O)CC1O[Si](C)(C)C(C)(C)C (stereo unspecified) | 29.5 µM | – |
| COc1cccc2c1C(=O)c1c(O)c3c(c(O)c1C2=O)CC(O)(C(C)=O)CC3OC1OC(COC(C)=O)C(OC(C)=O)C(OC(C)=O)C1OC(C)=O (stereo unspecified) | > 100 µM | – |
| Cc1ccc2nc(-c3nccn3C)cc(C(=O)NC(C)CN(C)C)c2c1 (stereo unspecified) | > 100 µM | – |
| CC1OC(OC2C(O)C(OCCc3ccc(O)c(O)c3)OC(CO)C2OC(=O)/C=C/c2ccc(O)c(O)c2)C(O)C(O)C1O (stereo unspecified) | > 100 µM | > 100 µM |
| NS(=O)(=O)c1ccc(-n2nc(-c3ccccc3)cc2-c2cc(O)ccc2O)cc1 | > 100 µM | 32.4 µM |
| Cc1nc2c(n1Cc1ccc(F)cc1)C(=O)c1ccccc1C2=O | > 100 µM | – |
| Oc1ccccc1CNCc1ccccc1O | > 100 µM | – |
| CC(=O)OCC1OC([S-])C(OC(C)=O)C(OC(C)=O)C1OC(C)=O.[Au+].c1ccc(CN2[CH-]N(Cc3ccccc3)C(c3ccccc3)=C2c2ccccc2)cc1 | 27.3 µM and 5.16 µM | – |
| Cl.[O-]c1cccc2cccnc12.[O-]c1cccc2cccnc12.[O-]c1cccc2cccnc12.[O-]c1cccc2cccnc12.[Ti+4] | > 43.7 µM | 3.44 µM |
| CCCn1cc(/C=N\N=C2\C(=O)Nc3ccc(C)cc32)c2ccccc21 | > 100 µM | 3.42 µM |
| Cc1cc2nc3c(C#N)c4c(c(Cl)n3c2cc1C)CCC4 | > 100 µM | – |
| CCOC(=O)NC(C(F)(F)F)(C(F)(F)F)P(=O)(OCC)OCC | > 100 µM | – |
| CCCc1cn2c(/C=N/N=C(N)N)c(-c3ccc([N+](=O)[O-])cc3)nc2s1 | 3.56 µM | – |
| COc1cc2cnc3c4cc(O)ccc4ccc3c2cc1OC | > 100 µM | – |
| CN(C)C[C@@H]1CCn2cc(c3ccccc32)C2=C(C(=O)NC2=O)c2cn(c3ccccc23)CCO1 | > 10 µM | 2.81 µM |

| Structure (SMILES) | TGI | GI50 |
| --- | --- | --- |
| C=C1C(=O)O[C@H]2C3OC3(C)CC/C=C(/C(=O)OC)[C@@H](OC(C)=O)[C@H](OC(=O)C3(C)OC3C)[C@H]12 (stereo partly specified) | 8.34 µM and 19.3 µg/mL | 2.52 µM and 4.91 µg/mL |
| O=c1[nH]c(Br)nc2n[nH]nc12 | > 100 µM | – |
| O=c1[nH]nc(-c2ccccc2)n1-n1cccc1 | > 100 µM | – |
| C=C(C)C1CC=C(C)C(O)([C@@]2(O)C[C@H](C(=C)C)CC=C2C)C1 (stereo partly specified) | > 100 µM | – |
| N#C/C(=C\c1ccccc1F)C(=O)c1ccccc1 | > 100 µM | – |
| COc1ccc(-c2nsc3c2NC(=O)CC3c2cccc(F)c2)cc1 (stereo unspecified) | > 100 µM | 6.42 µM |
| O=C(CC1(O)C(=O)Nc2c(Cl)cc(Cl)cc21)c1ccc([N+](=O)[O-])cc1 (stereo unspecified) | > 100 µM | – |
| C#Cc1cccc(Nc2ncnc3ccc(-c4cnc(N)nc4)cc23)c1 | 4.54 µM | 0.353 µM |
| CCCCCCCCC1C(C)c2c([nH]c3ccccc23)C2C(=O)N(c3ccccc3)C(=O)C21 (stereo unspecified) | 35.8 µM | – |
| Cc1cc(N(CCC#N)CCC#N)ccc1/C=C(\N=[N+]=[N-])C(=O)NC(=O)COc1ccccc1 | > 100 µM | – |
| COc1ccc(C(SCCO)(c2ccc(OC)cc2)c2ccc(OC)cc2)cc1 | > 100 µM | – |
| O=C(O)CC(S)C(=O)O.[Li+].[Sb] (stereo unspecified) | > 100 µM | 80 µM |
| Cc1nccc2c3ccc(OCc4cn(-c5ccc(Br)cc5)nn4)cc3n(CCCc3ccccc3)c12 | > 100 µM | > 100 µM |
| O=C(CCN1CCCC1)Nc1ccc2c(Nc3ccc(Br)cc3)c3ccccc3nc2c1 | 2.95 µM | 1.6 µM |
| O=C(N/N=C/c1cc(Cl)cc(Cl)c1[OH2+])c1ccncc1.O=S(=O)([O-])[O-].[Fe+2] | 38.2 µM | – |
| O=c1oc2ccc(I)cc2c(=O)n1-c1ccc(I)cc1F | 24.1 µM | 0.365 µM |
| CC(c1ccccc1)n1c2ccccc2c2c(N)ncnc21 (stereo unspecified) | 33 µM | – |
| CN(C)c1ccc(/C=N/n2c(CCCCc3n[nH]c(=S)n3/N=C/c3ccc(N(C)C)cc3)n[nH]c2=S)cc1 | > 100 µM | > 100 µM |
| C/C1=C\CC[C@@]2(C)O[C@@H]2C[C@@H]2[C@H](C/C(C)=C/CC1)OC(=O)[C@]21CO1 | > 100 µM | – |
| S=C1C(CCCOCc2ccccc2)C2CCCC23CC2(CCN13)OCCS2 (stereo unspecified) | > 10 µM | – |
| CC(C)NC(=O)OCc1c(COC(=O)NC(C)C)c(-c2cc[n+](COC(=O)Cc3ccccc3)cc2)n2c1CCC2 | > 100 µM | – |
| NC1C2C=CC(C2)C1C(=O)O (stereo unspecified) | > 100 µM | – |
